# Measurements as given in the supplement of paper PMC8728848.
# The list shows a part of the results.
# Columns and labels:
# Assay in all cases: glycan array binding signal (z-score within array); higher = stronger binding
# Conditions in all cases: glycan notation: IUPAC condensed, linker removed
# [1] = biological target: Man(a1-2)Man(a1-3)[Man(a1-2)Man(a1-6)]Man(a1-6)[Man(a1-2)Man(a1-2)Man(a1-3)]Man
# Summary of the method: (§1)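 The binding signal is a Z-score computed within each array. Data were drawn from 3228 arrays in the Consortium for Functional Glycomics database, restricted to those with a known protein sequence. Scores were averaged over arrays of the same protein sequence at different concentrations or buffers, and over linkers, and negative values can be taken as non-binding.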
# [2] = biological target: Man(a1-2)Man(a1-3)[Man(a1-2)Man(a1-6)]Man(a1-6)[Man(a1-2)Man(a1-2)Man(a1-3)]Man(b1-4)GlcNAc(b1-4)GlcNAc
# Summary of the method: as §1
# [3] = biological target: Man(a1-2)Man(a1-3)[Man(a1-6)]Man(a1-6)[Man(a1-2)Man(a1-3)]Man(b1-4)GlcNAc(b1-4)GlcNAc
# Summary of the method: as §1
# [4] = biological target: Man(a1-2)Man(a1-6)[Man(a1-3)]Man(a1-6)[Man(a1-2)Man(a1-2)Man(a1-3)]Man
# Summary of the method: as §1
# [5] = biological target: Man(a1-2)Man(a1-6)[Man(a1-3)]Man(a1-6)[Man(a1-2)Man(a1-2)Man(a1-3)]Man(b1-4)GlcNAc(b1-4)GlcNAc
# Summary of the method: as §1
# [6] = biological target: Man(a1-3)[Man(a1-6)]Man
# Summary of the method: as §1
# [7] = biological target: Man(a1-3)[Man(a1-6)]Man(a1-6)[Man(a1-2)Man(a1-3)]Man(b1-4)GlcNAc(b1-4)GlcNAc
# Summary of the method: as §1
# [8] = biological target: Man(a1-3)[Man(a1-6)]Man(a1-6)[Man(a1-3)]Man
# Summary of the method: as §1
# [9] = biological target: Man(a1-3)[Man(a1-6)]Man(a1-6)[Man(a1-3)]Man(b1-4)GlcNAc(b1-4)GlcNAc
# Summary of the method: as §1
# [10] = biological target: Man(a1-3)[Man(a1-6)]Man(b1-4)GlcNAc(b1-4)GlcNAc
# Summary of the method: as §1
# [11] = biological target: Man(a1-3)[Man(a1-6)]Man(b1-4)GlcNAc(b1-4)[Fuc(a1-6)]GlcNAc
# Summary of the method: as §1
# [12] = biological target: Man(a1-6)Man
# Summary of the method: as §1
# [13] = biological target: Man(b1-4)GlcNAc
# Summary of the method: as §1
# [14] = biological target: MurNAc(b1-4)GlcNAc
# Summary of the method: as §1
# [15] = biological target: Neu5Ac(a2-3)Gal
# Summary of the method: as §1
# [16] = biological target: Neu5Ac(a2-3)Gal(b1-3)GalNAc
# Summary of the method: as §1
# [17] = biological target: Neu5Ac(a2-3)Gal(b1-3)GalNAc(b1-3)Gal(a1-4)Gal(b1-4)Glc
# Summary of the method: as §1
# [18] = biological target: Neu5Ac(a2-3)Gal(b1-3)GalNAc(b1-4)[Neu5Ac(a2-3)]Gal(b1-4)Glc
# Summary of the method: as §1
# [19] = biological target: Neu5Ac(a2-3)Gal(b1-3)GalNAc(b1-4)[Neu5Ac(a2-8)Neu5Ac(a2-3)]Gal(b1-4)Glc
# Summary of the method: as §1
# [20] = biological target: Neu5Ac(a2-3)Gal(b1-3)GalNAc6S
# Summary of the method: as §1
# [21] = biological target: Neu5Ac(a2-3)Gal(b1-3)GlcNAc
# Summary of the method: as §1
# [22] = biological target: Neu5Ac(a2-3)Gal(b1-3)GlcNAc(b1-2)Man
# Summary of the method: as §1
# [23] = biological target: Neu5Ac(a2-3)Gal(b1-3)GlcNAc(b1-2)Man(a1-3)[GlcNAc(b1-4)][Neu5Ac(a2-3)Gal(b1-3)GlcNAc(b1-2)Man(a1-6)]Man(b1-4)GlcNAc(b1-4)GlcNAc
# Summary of the method: as §1
# [24] = biological target: Neu5Ac(a2-3)Gal(b1-3)GlcNAc(b1-2)Man(a1-3)[Neu5Ac(a2-3)Gal(b1-3)GlcNAc(b1-2)Man(a1-6)]Man(b1-4)GlcNAc(b1-4)GlcNAc
# Summary of the method: as §1
# [25] = biological target: Neu5Ac(a2-3)Gal(b1-3)GlcNAc(b1-3)Gal(b1-3)GlcNAc
# Summary of the method: as §1
# [26] = biological target: Neu5Ac(a2-3)Gal(b1-3)GlcNAc(b1-3)Gal(b1-4)GlcNAc
# Summary of the method: as §1
# [27] = biological target: Neu5Ac(a2-3)Gal(b1-3)GlcNAc(b1-3)GalNAc
# Summary of the method: as §1
# [28] = biological target: Neu5Ac(a2-3)Gal(b1-3)GlcNAc(b1-4)Gal(b1-4)Glc
# Summary of the method: as §1
# [29] = biological target: Neu5Ac(a2-3)Gal(b1-3)GlcNAc(b1-6)GalNAc
# Summary of the method: as §1
# [30] = biological target: Neu5Ac(a2-3)Gal(b1-3)GlcNAc6S
# Summary of the method: as §1
# [31] = biological target: Neu5Ac(a2-3)Gal(b1-3)[Fuc(a1-4)]GlcNAc
# Summary of the method: as §1
# [32] = biological target: Neu5Ac(a2-3)Gal(b1-3)[Fuc(a1-4)]GlcNAc(b1-3)Gal(b1-3)[Fuc(a1-4)]GlcNAc
# Summary of the method: as §1
# [33] = biological target: Neu5Ac(a2-3)Gal(b1-3)[Fuc(a1-4)]GlcNAc(b1-3)Gal(b1-4)[Fuc(a1-3)]GlcNAc
# Summary of the method: as §1
# [34] = biological target: Neu5Ac(a2-3)Gal(b1-3)[GlcNAc(b1-6)]GalNAc
# Summary of the method: as §1
# [35] = biological target: Neu5Ac(a2-3)Gal(b1-3)[Neu5Ac(a2-6)]GalNAc
# Summary of the method: as §1
# [36] = biological target: Neu5Ac(a2-3)Gal(b1-3)[Neu5Ac(a2-6)]GlcNAc(b1-3)[Fuc(a1-3)[Gal(b1-4)]GlcNAc(b1-6)]Gal(b1-4)Glc
# Summary of the method: as §1
# [37] = biological target: Neu5Ac(a2-3)Gal(b1-3)]Neu5Ac(a2-3)Gal(b1-4)]GlcNAc
# Summary of the method: as §1
binder,measurement,setting,value
GS14009A-pdi-495-27-495 (Parabacteroides distasonis) (protein) FEEVNTDPDSPTDVPTTNLLAYSLYYTSYRLYDRWFAMDEPMTFCGYASKMTYIDESRYNFRTGVQDTNWEYLYRILNNLKDIEKRATFNETPNMLNVSKVMQVHLMQVATDRWRDVPYTDAAKMTDGILQPKYDKQEDIYPGLLATLKEAADGFADGGSDDLGEGDLLFGGDIEKWQRYCNSMRLRLAMRISEVSPALAKETVEEVMGNPTKYPIMESNDDNAFFWWIGTDPNYYEPMADGYRTRKTEYCAADVIVDHMNTREDPRRSSYFQPTKESVEAGEPKYVGYTIGAKANAVASKYSIWGARFFTDLAGFSPYMRVAEPWFCVAEASMLGWNTGISAEDAYNKAVTYSMEENSVSAEDIADYLANAGKFTNDKKQIYYEEWVAMFKQGMEGWSLYRRTGVPDNLYPAPGRPANYSNHNVPPFRSPYPDKERNLNNANCAPFDAEVVDNLWGKQMWWDTRTGVH,glycan array binding signal (z-score),[1],-0.522
same,glycan array binding signal (z-score),[2],0.436
same,glycan array binding signal (z-score),[3],0.95
same,glycan array binding signal (z-score),[4],-0.204
same,glycan array binding signal (z-score),[5],-0.815
same,glycan array binding signal (z-score),[6],0.286
same,glycan array binding signal (z-score),[7],0.546
same,glycan array binding signal (z-score),[8],0.839
same,glycan array binding signal (z-score),[9],-0.248
same,glycan array binding signal (z-score),[10],-0.313
same,glycan array binding signal (z-score),[11],-0.62
same,glycan array binding signal (z-score),[12],-0.213
same,glycan array binding signal (z-score),[13],0.43
same,glycan array binding signal (z-score),[14],-0.393
same,glycan array binding signal (z-score),[15],-0.987
same,glycan array binding signal (z-score),[16],-0.605
same,glycan array binding signal (z-score),[17],-0.008
same,glycan array binding signal (z-score),[18],-0.111
same,glycan array binding signal (z-score),[19],-0.25
same,glycan array binding signal (z-score),[20],-0.004
same,glycan array binding signal (z-score),[21],-0.243
same,glycan array binding signal (z-score),[22],-0.522
same,glycan array binding signal (z-score),[23],-0.255
same,glycan array binding signal (z-score),[24],-0.174
same,glycan array binding signal (z-score),[25],-0.682
same,glycan array binding signal (z-score),[26],-0.404
same,glycan array binding signal (z-score),[27],-0.635
same,glycan array binding signal (z-score),[28],-0.576
same,glycan array binding signal (z-score),[29],-0.205
same,glycan array binding signal (z-score),[30],-0.08
same,glycan array binding signal (z-score),[31],-0.401
same,glycan array binding signal (z-score),[32],-0.618
same,glycan array binding signal (z-score),[33],0.208
same,glycan array binding signal (z-score),[34],-0.177
same,glycan array binding signal (z-score),[35],-0.544
same,glycan array binding signal (z-score),[36],-0.04
same,glycan array binding signal (z-score),[37],-1.02
